# Experimental data: paper PMC4336329 (PLoS ONE, 2015)
# The whole screen tested about 310,000 compounds, of which about 14,000 (4.5%) showed an effect of 50% or more. The effect is printed as a negative number. The list shows a part of the results.
# Molecular target: human ether-à-go-go-related gene (hERG) potassium channel (human, UniProt Q12809)
# Experiment: primary screen, population patch clamp on CHO cells stably expressing hERG
# 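Also: peak tail current of the secondary pulse compared with the same well before compound.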
# Chain of human ether-à-go-go-related gene (hERG) potassium channel (Q12809 whole entry, looked up): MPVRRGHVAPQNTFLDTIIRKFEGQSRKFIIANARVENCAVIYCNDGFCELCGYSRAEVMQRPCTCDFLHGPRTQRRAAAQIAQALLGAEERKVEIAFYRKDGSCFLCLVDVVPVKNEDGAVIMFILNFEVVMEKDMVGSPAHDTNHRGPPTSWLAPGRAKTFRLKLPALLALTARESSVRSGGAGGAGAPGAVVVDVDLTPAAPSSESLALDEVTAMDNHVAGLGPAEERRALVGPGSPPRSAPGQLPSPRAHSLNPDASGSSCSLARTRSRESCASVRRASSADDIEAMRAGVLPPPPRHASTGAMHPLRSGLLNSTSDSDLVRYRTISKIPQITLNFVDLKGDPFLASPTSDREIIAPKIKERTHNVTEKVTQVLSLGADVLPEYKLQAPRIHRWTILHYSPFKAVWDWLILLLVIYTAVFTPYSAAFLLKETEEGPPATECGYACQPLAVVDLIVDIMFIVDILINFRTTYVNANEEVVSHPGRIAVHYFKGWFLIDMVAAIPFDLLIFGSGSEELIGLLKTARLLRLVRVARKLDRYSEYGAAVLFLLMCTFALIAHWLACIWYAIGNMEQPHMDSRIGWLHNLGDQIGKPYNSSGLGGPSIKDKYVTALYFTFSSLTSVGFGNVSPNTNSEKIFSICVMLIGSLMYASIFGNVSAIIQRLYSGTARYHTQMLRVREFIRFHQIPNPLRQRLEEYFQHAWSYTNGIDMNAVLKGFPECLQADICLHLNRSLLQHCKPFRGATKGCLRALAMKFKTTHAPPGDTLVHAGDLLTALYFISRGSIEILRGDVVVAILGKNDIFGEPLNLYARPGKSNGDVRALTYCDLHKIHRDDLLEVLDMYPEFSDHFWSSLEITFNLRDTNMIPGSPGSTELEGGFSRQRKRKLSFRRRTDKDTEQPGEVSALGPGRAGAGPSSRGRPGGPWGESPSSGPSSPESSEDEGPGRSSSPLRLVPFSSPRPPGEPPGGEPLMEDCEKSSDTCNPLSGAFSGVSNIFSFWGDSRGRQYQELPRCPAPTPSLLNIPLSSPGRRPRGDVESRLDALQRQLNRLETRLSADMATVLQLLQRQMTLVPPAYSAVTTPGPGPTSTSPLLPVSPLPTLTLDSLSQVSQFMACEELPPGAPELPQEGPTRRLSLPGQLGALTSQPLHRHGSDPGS
row,Compound,"hERG current change (%, negative = inhibition) at 10uM"
1,COc1ccccc1C(=O)NC1CCSc2ccccc21 (centres unmarked),-6.48%
2,COc1ccc(N2CCCC2)c(NC(=O)c2ccc(Br)o2)c1,11.8%
3,COc1ccc(Nc2nnc(Cc3ccc(Cl)cc3)c(=O)[nH]2)c(OC)c1,-32.3%
4,O=C(CCCC(=O)OCC(F)(F)C(F)F)Nc1ccccc1F,14.8%
5,O=C(Nc1cccnc1Cl)c1ccc(Cl)cc1,-3.09%
6,COc1ccccc1CNc1nc2ccccc2n1CCN1CCCCC1,-61.5%
7,Nn1c(CSc2nc3ccccc3o2)nnc1CSc1nc2ccccc2o1,-22.8%
8,C[C@@H]1C=CC(=O)O[C@@H]1c1ccc(C(F)(F)F)cc1,2.71%
9,COc1ccc(N2CCN(C(=O)COC(=O)c3ccc(-n4nc(C)cc4C)cc3)CC2)cc1,-1.95%
10,Cn1cccc1C(=O)C(=O)Nc1cccc(Cl)c1Cl,9.89%
11,c1ccc(COc2ccc(-c3csnn3)cc2)cc1,-3.17%
12,CC(Sc1ccc([N+](=O)[O-])cn1)C(=O)Nc1nccs1 (centres unmarked),-5.58%
13,Cc1ccc(C)c(N2CCN(C(=O)c3ccc4c(c3)c(C)c(C)n4C)CC2)c1,10.8%
14,CCN1CCCC1CNC(=O)c1cc2cc(F)ccc2[nH]1 (centres unmarked),-73.3%
15,O=C(CSC1=NCCS1)Nc1nc2ccccc2s1,6.64%
16,COc1cccc(-c2cc(C(=O)N3CCN(C(c4ccccc4)c4ccccc4)CC3)no2)c1,5.76%
17,Cc1ccccc1CSCCNC(=O)CSCc1ccc([N+](=O)[O-])cc1,-51.3%
18,OC[C@H]1O[C@@H](n2cnc3c(Nc4ccccc4)ncnc32)[C@H](O)[C@@H]1O,-11.1%
19,CN(CP(=O)(O)CN(C)S(C)(=O)=O)S(C)(=O)=O,8.86%
20,Cc1csc(Sc2ccc([N+](=O)[O-])cc2C(=O)OCC(=O)NC2CCCC(C)C2C)n1 (centres unmarked),-26.2%
21,CCc1ccc(NC(=O)Cn2c(SC)nc3ccccc32)cc1,3.1%
22,Cc1cc(/C=C2\C(=O)NC(=O)N(Cc3ccco3)C2=O)c(C)n1-c1ccc(C(=O)O)cc1,12.2%

row,Compound,"hERG current change (%, negative = inhibition) at 10uM"
1,CCOCCCNC(=S)N1CCN(C(=O)C(=O)Nc2ccc(C(=O)OC)cc2)CC1,-40.6%
2,CCN(CC)C(=O)c1sc(NC(=O)Cc2ccccc2)c(C#N)c1C,-11.3%
3,O=C(Cn1nnc(-c2ccccc2)n1)Nc1cccc(S(=O)(=O)N2CCCC2)c1,-2.26%
4,Cn1c(=O)[nH]c(=O)c2c1nc(CN1CCN(c3ccc(F)cc3)CC1)n2CCN1CCOCC1,-25.8%
5,O=C(C[n+]1ccc(/C=C/c2ccccc2)cc1)c1ccc2c(c1)OCCO2.[Br-],-50.2%
6,Cc1c(C(=O)N2CCN(c3ncccn3)CC2)sc2nc3n(c(=O)c12)CCCC3,12.5%
7,CCOC(=O)c1ccc(S(=O)(=O)N2CCN(S(=O)(=O)CC)CC2)cc1,8.36%
8,CC1(C)CC(=O)C2=C(C1)OC(N)=C(C#N)C21C(=O)N(CN2CCOCC2)c2ccccc21 (centres unmarked),17.8%
9,CCn1c(SCC(=O)NNC(=O)c2ccc(OC)cc2)nnc1-c1cccnc1,-14.9%
10,Oc1ccccc1-c1nc(N2CCCC2)c2ccccc2n1,-13.2%
11,NC(=O)CSc1nc2c(sc(=S)n2-c2ccccc2)c(=O)[nH]1,22.8%
12,COc1ccc(C)cc1NC(=O)CCCN1C(=O)CN(C)C1=O,-14.1%
13,COc1cc(NC(=O)CN2CCC(Cc3ccccc3)CC2)c(C)cc1[N+](=O)[O-],6.01%
14,Clc1cccc(Cl)c1Cn1nnc(N2CCCC2)n1,4.97%
15,CSc1ncc(CN2CCN(C3CCCCC3)C(CCO)C2)cn1 (centres unmarked),-16.9%
16,COc1ccc(C2C(=O)N(C3CCCCC3)CC(=O)N2C2CCCC2)cc1 (centres unmarked),-12.1%
17,Cc1c(NC(=O)C(C)OC(=O)c2cc(-c3cccc4ccccc34)nc3ccccc23)c(=O)n(-c2ccccc2)n1C (centres unmarked),-10.3%
18,Cc1ccc(NC(=O)c2ccc3c(c2)CCN3S(C)(=O)=O)c(C)c1,-7.35%
19,Nc1nc(CSc2n[nH]c(-c3ccccc3)n2)nc(Nc2ccccc2)n1,-15.4%
20,COc1cccc(-n2c(-c3ccccc3)c[nH]c2=S)c1,24.4%
21,Cc1cc(NC(=O)CSc2ccc3nnc(-c4cccs4)n3n2)no1,-42.8%
22,O=C1CC(NN2CCCCC2)C(=O)N1c1ccccc1 (centres unmarked),-3.51%

row,Compound,"hERG current change (%, negative = inhibition) at 10uM"
1,C[C@H](NC(=O)OCc1ccccc1)C(=O)NNC(=O)[C@H](Cc1ccccc1)NC(=O)OC(C)(C)C,31.2%
2,COc1ccc(-c2cc(=O)oc3c(C)c(OCC(=O)NCCCn4ccnc4)ccc23)cc1,-63.8%
3,CC(C)C(=O)Nc1nnc(CCN2CCCCC2)s1,1%
4,COc1cccc(-n2cc(CN(C)Cc3nc(Cc4ccccc4)no3)cn2)c1,-37.9%
5,O=C(CSCc1nc2ccccc2[nH]1)N1CCN(c2cccc(Cl)c2)CC1,-9.81%
6,Cc1nc2nc(C)c(NS(=O)(=O)c3ccc(Cl)s3)c(=O)n2[nH]1,16.3%
7,O=C1CC(=O)N(c2cccc(Cl)c2)C(=O)N1,-1.2%
8,COc1ccc(-n2nc(C(=O)NCC(=O)NCCCN3CCOCC3)c3ccccc3c2=O)c(OC)c1,22.2%
9,CCN(CC)C(=O)N1CCC(NC(=O)c2ccccc2)CC1,12.6%
10,Cc1ccc(C(=O)N/C(=C\c2ccc(F)cc2)C(=O)NCCCn2ccnc2)cc1,-77.5%
11,Cc1ccc2[nH]c3c(=O)n(CC(=O)N4CC(C)CC(C)C4)ncc3c2c1 (centres unmarked),6.32%
12,COc1ccc(C(CCNCc2ccc(N(C)C)cc2)c2ccccc2OC)cc1 (centres unmarked),-71.1%
13,O=C(NNC(=O)c1cc(-c2ccc(Cl)cc2Cl)nc2ccccc12)Nc1ccccc1,1.72%
14,CC(NC(=O)CCNC(=O)N1CCn2c1nc1ccccc12)c1ccccc1 (centres unmarked),-4.17%
15,CCOc1cccc(OCCOc2ccccc2[N+](=O)[O-])c1,0.403%
16,CC(NS(=O)(=O)c1ccc(Cl)cc1)C(=O)NCCC1=CCCCC1 (centres unmarked),-5.41%
17,CC1Cc2ccccc2N1Cc1nc2scc(-c3cccs3)c2c(=O)[nH]1 (centres unmarked),25.2%
18,CCOc1cc(/C=N/NC(=O)CN2CCCCC2)ccc1OCc1ccc(Cl)cc1,7.37%
19,O=C(Cc1ccccc1)Nc1ccc(Cl)cn1,16.6%
20,CCOc1ccccc1C(c1c(C)n(C)n(-c2ccccc2)c1=O)c1c(C)n(C)n(-c2ccccc2)c1=O,-5.61%
21,O=C(CSc1ncc(-c2ccccc2)nn1)NCc1ccco1,-23.6%
22,COc1ccc(NC(=O)N2CCCC2C(=O)NCc2ccc(F)cc2)cc1 (centres unmarked),-4.28%

row,Compound,"hERG current change (%, negative = inhibition) at 10uM"
1,CC(C)c1nnc(NC(=O)Cc2ccccc2[N+](=O)[O-])s1,11%
2,CS(=O)(=O)N1CCC(C(=O)Nc2ccc(Br)cc2F)CC1,5.01%
3,CC1=CC(C)(C)N(S(=O)(=O)c2ccc(C)cc2)c2ccc(C)cc21,-5.9%
4,CCO[C@@H]1OC(C(=O)N2CCN(Cc3ccc4c(c3)OCO4)CC2)=C[C@H](c2ccc3c(c2)OCO3)[C@H]1CCCO,-23.2%
5,CC1CCCN(S(=O)(=O)c2cc3c4c(c2)C(C)C(=O)N4CCC3)C1 (centres unmarked),14.6%
6,O=C(Nc1ccc(-c2nnc(-c3ccccc3)o2)cc1)c1ccc(Br)o1,-7.92%
7,CS(=O)(=O)N(CC(=O)NC1CCCC1)c1ccc(Oc2ccccc2)cc1,-2.69%
8,CC(=O)Nc1ccc2nc(NC(=O)COc3ccccc3C)sc2c1,-0.0372%
9,O=c1cc(O)c2sc3nc(-c4cccnc4)cc(C(F)(F)F)c3c2[nH]1,2.76%
10,CC1CCC(N2CCN(c3ccc([N+](=O)[O-])cc3)CC2)CC1 (centres unmarked),-74.8%
11,Cc1ccc(NS(=O)(=O)c2ccc(CCC(=O)NCCO)cc2)cc1,-1.96%
12,CN1CCc2c(OCc3ccc(F)cc3)cccc2C1=O,-11.4%
13,Cl.O=S(=O)(NCCN1CCOCC1)c1ccc(Cl)s1,24%
14,O=C(CCN1CCOCC1)c1ccc(N2CCCCC2)cc1.[Br-],-2.06%
15,Cc1ccc(CN(Cc2cccnc2)C(=S)Nc2cccc(Cl)c2C)cc1,8.32%
16,CC(C)(C)c1ccc(NC(=O)N2CCN(c3ccc([N+](=O)[O-])cn3)CC2)cc1,-9.81%
17,COc1cccc(OCc2nnc(SCC(=O)NCc3ccco3)n2CCc2ccccc2)c1,-44.6%
18,O=C(NCCOc1ccccc1)C1CCC(=O)N(CCN2CCOCC2)C1 (centres unmarked),24.7%
19,Cc1nnsc1NC(=O)OCc1ccc(C(F)(F)F)cc1,-8.15%
20,CC1CC(C)CN(C(=O)CCC(=O)Nc2nnc(C(C)C)s2)C1 (centres unmarked),12.6%
